# Source: PMC11997380
# Sequences of proteins named here, by UniProt entry; tags and fusion partners are left off. A change or cut given only in a name is not applied to a line headed by its entry. A line that says so, or that is headed by a name, gives the form on record, which may keep a tag or linker. Residues count along the entry.
# FLAG-tagged wild type GRP78 [F-78 (WT)] (P11021, residues 19-654): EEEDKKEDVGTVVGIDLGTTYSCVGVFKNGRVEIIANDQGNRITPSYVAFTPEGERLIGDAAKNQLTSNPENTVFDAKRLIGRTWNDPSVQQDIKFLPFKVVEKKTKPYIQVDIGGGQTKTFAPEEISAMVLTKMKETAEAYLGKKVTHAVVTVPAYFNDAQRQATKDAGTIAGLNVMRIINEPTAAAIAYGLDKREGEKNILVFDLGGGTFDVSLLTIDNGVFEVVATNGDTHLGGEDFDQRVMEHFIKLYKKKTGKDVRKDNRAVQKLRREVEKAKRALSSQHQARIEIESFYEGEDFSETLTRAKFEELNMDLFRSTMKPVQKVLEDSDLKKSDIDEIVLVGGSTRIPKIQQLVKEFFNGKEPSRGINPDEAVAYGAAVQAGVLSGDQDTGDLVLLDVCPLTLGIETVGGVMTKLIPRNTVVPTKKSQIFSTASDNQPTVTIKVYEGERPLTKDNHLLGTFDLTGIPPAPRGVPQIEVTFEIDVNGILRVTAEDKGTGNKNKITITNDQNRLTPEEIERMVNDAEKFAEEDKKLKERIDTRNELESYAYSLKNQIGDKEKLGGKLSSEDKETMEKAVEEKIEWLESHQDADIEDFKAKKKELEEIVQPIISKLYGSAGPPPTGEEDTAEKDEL
# FLAG-GRP78 mutant G227D (ATP binding deficient) (P11021, form named): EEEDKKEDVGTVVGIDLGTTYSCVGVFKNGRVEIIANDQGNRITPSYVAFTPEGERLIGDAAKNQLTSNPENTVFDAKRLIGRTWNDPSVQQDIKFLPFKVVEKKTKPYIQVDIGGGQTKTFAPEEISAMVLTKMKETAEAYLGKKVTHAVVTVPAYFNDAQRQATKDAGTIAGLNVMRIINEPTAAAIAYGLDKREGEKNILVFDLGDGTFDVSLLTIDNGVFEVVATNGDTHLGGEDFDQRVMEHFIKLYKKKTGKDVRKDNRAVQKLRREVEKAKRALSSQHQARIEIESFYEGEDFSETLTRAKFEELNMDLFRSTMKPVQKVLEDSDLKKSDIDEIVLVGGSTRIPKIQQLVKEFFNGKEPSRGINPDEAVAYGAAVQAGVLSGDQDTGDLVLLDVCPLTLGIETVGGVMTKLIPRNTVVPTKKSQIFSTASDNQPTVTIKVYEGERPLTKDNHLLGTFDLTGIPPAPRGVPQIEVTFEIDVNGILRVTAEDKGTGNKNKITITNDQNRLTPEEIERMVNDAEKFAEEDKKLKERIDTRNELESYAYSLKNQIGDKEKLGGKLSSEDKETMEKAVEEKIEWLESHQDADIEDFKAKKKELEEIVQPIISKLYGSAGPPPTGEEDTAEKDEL
# FLAG-GRP78 mutant R197H (cochaperone binding deficient) (P11021, form named): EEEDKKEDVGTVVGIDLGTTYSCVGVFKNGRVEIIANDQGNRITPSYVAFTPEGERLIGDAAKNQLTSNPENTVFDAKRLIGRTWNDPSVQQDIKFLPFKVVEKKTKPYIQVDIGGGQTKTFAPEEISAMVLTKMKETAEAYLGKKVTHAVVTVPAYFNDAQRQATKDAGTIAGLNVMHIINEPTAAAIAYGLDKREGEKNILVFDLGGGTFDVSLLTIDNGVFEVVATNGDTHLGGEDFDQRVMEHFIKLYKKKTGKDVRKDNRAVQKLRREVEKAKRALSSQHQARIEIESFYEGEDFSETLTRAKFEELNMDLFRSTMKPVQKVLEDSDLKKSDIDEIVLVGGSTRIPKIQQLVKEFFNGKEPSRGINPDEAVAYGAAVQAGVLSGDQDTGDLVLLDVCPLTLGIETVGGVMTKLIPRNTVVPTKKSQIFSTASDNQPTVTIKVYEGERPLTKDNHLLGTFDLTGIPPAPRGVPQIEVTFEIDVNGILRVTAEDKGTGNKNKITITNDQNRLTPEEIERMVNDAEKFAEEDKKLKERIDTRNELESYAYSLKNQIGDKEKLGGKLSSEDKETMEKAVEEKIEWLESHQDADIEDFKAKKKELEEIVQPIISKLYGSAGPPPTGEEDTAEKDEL
# FLAG-GRP78 mutant T453D (substrate binding deficient) (P11021, form named): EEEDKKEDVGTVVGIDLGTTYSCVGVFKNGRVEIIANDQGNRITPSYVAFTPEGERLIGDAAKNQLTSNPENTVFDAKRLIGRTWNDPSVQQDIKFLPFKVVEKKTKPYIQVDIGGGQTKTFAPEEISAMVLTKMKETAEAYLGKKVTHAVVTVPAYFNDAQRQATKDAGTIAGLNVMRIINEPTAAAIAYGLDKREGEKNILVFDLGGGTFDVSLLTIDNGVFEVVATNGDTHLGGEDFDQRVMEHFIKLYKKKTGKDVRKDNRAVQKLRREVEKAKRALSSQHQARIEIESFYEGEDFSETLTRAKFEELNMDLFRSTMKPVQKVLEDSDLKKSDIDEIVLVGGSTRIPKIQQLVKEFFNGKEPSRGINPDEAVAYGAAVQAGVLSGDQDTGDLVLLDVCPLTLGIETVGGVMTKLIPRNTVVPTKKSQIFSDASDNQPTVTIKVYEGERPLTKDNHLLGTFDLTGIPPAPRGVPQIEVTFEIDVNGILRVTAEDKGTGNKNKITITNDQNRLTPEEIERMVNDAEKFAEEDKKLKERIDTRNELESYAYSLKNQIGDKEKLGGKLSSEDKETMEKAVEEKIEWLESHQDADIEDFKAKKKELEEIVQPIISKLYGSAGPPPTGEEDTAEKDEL
# FLAG-GRP78 mutant with the nuclear localization signal mutated [F78 (NLS^Mut)] (P11021, form named): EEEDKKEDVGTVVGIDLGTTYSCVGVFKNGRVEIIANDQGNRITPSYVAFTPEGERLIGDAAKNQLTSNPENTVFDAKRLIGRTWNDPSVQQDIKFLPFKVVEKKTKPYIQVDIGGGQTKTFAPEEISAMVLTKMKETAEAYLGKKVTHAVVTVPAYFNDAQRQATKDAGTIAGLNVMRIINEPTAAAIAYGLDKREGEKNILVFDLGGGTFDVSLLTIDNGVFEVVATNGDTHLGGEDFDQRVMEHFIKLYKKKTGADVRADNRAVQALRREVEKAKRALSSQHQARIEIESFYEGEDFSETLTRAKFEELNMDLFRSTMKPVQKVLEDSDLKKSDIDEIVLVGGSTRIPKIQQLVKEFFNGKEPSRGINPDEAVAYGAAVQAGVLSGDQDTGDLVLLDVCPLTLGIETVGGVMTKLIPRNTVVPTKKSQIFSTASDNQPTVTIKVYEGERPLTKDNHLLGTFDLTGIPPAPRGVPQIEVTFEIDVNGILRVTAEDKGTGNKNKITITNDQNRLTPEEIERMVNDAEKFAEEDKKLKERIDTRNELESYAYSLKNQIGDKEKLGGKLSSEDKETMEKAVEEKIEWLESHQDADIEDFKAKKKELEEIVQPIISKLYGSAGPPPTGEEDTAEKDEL
# These are yes or no findings as the source states them, for the method shown. In cells and extracts the contact can be indirect. Some binding calls cover weakened binding; strength is not graded here. Sequences can lack the tags named with a protein.
# Biological target: T1, ID2-FLAG-Myc (UniProt Q02363)
# T1 sequence: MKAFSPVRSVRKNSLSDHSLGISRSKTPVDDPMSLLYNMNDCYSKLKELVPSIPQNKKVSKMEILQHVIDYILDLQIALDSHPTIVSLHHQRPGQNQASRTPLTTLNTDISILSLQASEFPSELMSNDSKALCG
# Assay: co-IP; HEK293AD cells cotransfected with ID2-FLAG-Myc and F-78 constructs; lysed by sonication in 20 mM Tris-HCl pH 7.5, 150 mM NaCl, 2 mM EDTA, 0.1% Triton X-100; precipitated with anti-Myc (9E10) or IgG and protein A beads; blot with anti-FLAG (M2)
row,Substance,binding
1,FLAG-GRP78 mutant G227D (ATP binding deficient) (from UniProt P11021 19-654),no binding
2,FLAG-GRP78 mutant R197H (cochaperone binding deficient) (from UniProt P11021 19-654),binds
3,FLAG-GRP78 mutant T453D (substrate binding deficient) (from UniProt P11021 19-654),no binding
4,FLAG-GRP78 mutant with the nuclear localization signal mutated [F78 (NLS^Mut)] (from UniProt P11021 19-654),binds
5,FLAG-tagged wild type GRP78 [F-78 (WT)] (from UniProt P11021 19-654),binds
